B1: 1H3-hIgG1-L6-hIL-2 (R38A) (protein)
heavy: EVQLVESGGGLVQPGRSLKLSCAVSGFTFSDYAMAWVRQAPKKGLEWVATISYDGSRTYYRDSVKGRFTISRDNAKITLYLQMDSLRSEDTATYYCARHGSGYFDYWGQGVMVTVSS[not shown - about 450 residues with a human IgG1 Fc and changes]
light: DTVLTQSPALAVSPGERVTISCRASESVRTGVHWYQQKPGQQPKLLIYGASNLESGVPARFSGSGSGTDFTLTIDPVEADDTATYFCQQSWNDPFTFGSGTKLEIKRTVAAPSVFIFPPSDEQLKSGTASVVCLLNNFYPREAKVQWKVDNALQSGNSQESVTEQDSKDSTYSLSSTLTLSKADYEKHKVYACEVTHQGLSSPVTKSFNRGEC
B2: 1H3-hIgG1-L6-hIL-2 (R38D) (protein)
heavy: EVQLVESGGGLVQPGRSLKLSCAVSGFTFSDYAMAWVRQAPKKGLEWVATISYDGSRTYYRDSVKGRFTISRDNAKITLYLQMDSLRSEDTATYYCARHGSGYFDYWGQGVMVTVSS[not shown - about 450 residues with a human IgG1 Fc and changes]
light: DTVLTQSPALAVSPGERVTISCRASESVRTGVHWYQQKPGQQPKLLIYGASNLESGVPARFSGSGSGTDFTLTIDPVEADDTATYFCQQSWNDPFTFGSGTKLEIKRTVAAPSVFIFPPSDEQLKSGTASVVCLLNNFYPREAKVQWKVDNALQSGNSQESVTEQDSKDSTYSLSSTLTLSKADYEKHKVYACEVTHQGLSSPVTKSFNRGEC
B3: 1H3-hIgG1-L6-hIL-2 (R38D/E61R) (protein)
heavy: EVQLVESGGGLVQPGRSLKLSCAVSGFTFSDYAMAWVRQAPKKGLEWVATISYDGSRTYYRDSVKGRFTISRDNAKITLYLQMDSLRSEDTATYYCARHGSGYFDYWGQGVMVTVSS[not shown - about 450 residues with a human IgG1 Fc and changes]
light: DTVLTQSPALAVSPGERVTISCRASESVRTGVHWYQQKPGQQPKLLIYGASNLESGVPARFSGSGSGTDFTLTIDPVEADDTATYFCQQSWNDPFTFGSGTKLEIKRTVAAPSVFIFPPSDEQLKSGTASVVCLLNNFYPREAKVQWKVDNALQSGNSQESVTEQDSKDSTYSLSSTLTLSKADYEKHKVYACEVTHQGLSSPVTKSFNRGEC
B4: 1H3-hIgG1-L6-hIL-2 (R38D/E61R/K43E) (protein)
heavy: EVQLVESGGGLVQPGRSLKLSCAVSGFTFSDYAMAWVRQAPKKGLEWVATISYDGSRTYYRDSVKGRFTISRDNAKITLYLQMDSLRSEDTATYYCARHGSGYFDYWGQGVMVTVSS[not shown - human IgG1 constant region]SGGGGSAPTSSSTKKTQLQLEHLLLDLQMILNGINNYKNPKLTDMLTFEFYMPKKATELKHLQCLERELKPLEEVLNLAQSKNFHLRPRDLISNINVIVLELKGSETTFMCEYADETATIVEFLNRWITFCQSIISTLT
light: DTVLTQSPALAVSPGERVTISCRASESVRTGVHWYQQKPGQQPKLLIYGASNLESGVPARFSGSGSGTDFTLTIDPVEADDTATYFCQQSWNDPFTFGSGTKLEIKRTVAAPSVFIFPPSDEQLKSGTASVVCLLNNFYPREAKVQWKVDNALQSGNSQESVTEQDSKDSTYSLSSTLTLSKADYEKHKVYACEVTHQGLSSPVTKSFNRGEC
B5: 1H3-hIgG1-L6-hIL-2 (D20Y) (protein)
heavy: EVQLVESGGGLVQPGRSLKLSCAVSGFTFSDYAMAWVRQAPKKGLEWVATISYDGSRTYYRDSVKGRFTISRDNAKITLYLQMDSLRSEDTATYYCARHGSGYFDYWGQGVMVTVSS[not shown - about 450 residues with a human IgG1 Fc and changes]
light: DTVLTQSPALAVSPGERVTISCRASESVRTGVHWYQQKPGQQPKLLIYGASNLESGVPARFSGSGSGTDFTLTIDPVEADDTATYFCQQSWNDPFTFGSGTKLEIKRTVAAPSVFIFPPSDEQLKSGTASVVCLLNNFYPREAKVQWKVDNALQSGNSQESVTEQDSKDSTYSLSSTLTLSKADYEKHKVYACEVTHQGLSSPVTKSFNRGEC
B6: 1H3-hIgG1-L6-hIL-2 (D84A) (protein)
heavy: EVQLVESGGGLVQPGRSLKLSCAVSGFTFSDYAMAWVRQAPKKGLEWVATISYDGSRTYYRDSVKGRFTISRDNAKITLYLQMDSLRSEDTATYYCARHGSGYFDYWGQGVMVTVSS[not shown - about 450 residues with a human IgG1 Fc and changes]
light: DTVLTQSPALAVSPGERVTISCRASESVRTGVHWYQQKPGQQPKLLIYGASNLESGVPARFSGSGSGTDFTLTIDPVEADDTATYFCQQSWNDPFTFGSGTKLEIKRTVAAPSVFIFPPSDEQLKSGTASVVCLLNNFYPREAKVQWKVDNALQSGNSQESVTEQDSKDSTYSLSSTLTLSKADYEKHKVYACEVTHQGLSSPVTKSFNRGEC
B7: 1H3-hIgG1-L6-hIL-2 (N88Y) (protein)
heavy: EVQLVESGGGLVQPGRSLKLSCAVSGFTFSDYAMAWVRQAPKKGLEWVATISYDGSRTYYRDSVKGRFTISRDNAKITLYLQMDSLRSEDTATYYCARHGSGYFDYWGQGVMVTVSS[not shown - about 450 residues with a human IgG1 Fc and changes]
light: DTVLTQSPALAVSPGERVTISCRASESVRTGVHWYQQKPGQQPKLLIYGASNLESGVPARFSGSGSGTDFTLTIDPVEADDTATYFCQQSWNDPFTFGSGTKLEIKRTVAAPSVFIFPPSDEQLKSGTASVVCLLNNFYPREAKVQWKVDNALQSGNSQESVTEQDSKDSTYSLSSTLTLSKADYEKHKVYACEVTHQGLSSPVTKSFNRGEC
B8: 1H3-hIgG1-L6-hIL-2 (N88E) (protein)
heavy: EVQLVESGGGLVQPGRSLKLSCAVSGFTFSDYAMAWVRQAPKKGLEWVATISYDGSRTYYRDSVKGRFTISRDNAKITLYLQMDSLRSEDTATYYCARHGSGYFDYWGQGVMVTVSS[not shown - about 450 residues with a human IgG1 Fc and changes]
light: DTVLTQSPALAVSPGERVTISCRASESVRTGVHWYQQKPGQQPKLLIYGASNLESGVPARFSGSGSGTDFTLTIDPVEADDTATYFCQQSWNDPFTFGSGTKLEIKRTVAAPSVFIFPPSDEQLKSGTASVVCLLNNFYPREAKVQWKVDNALQSGNSQESVTEQDSKDSTYSLSSTLTLSKADYEKHKVYACEVTHQGLSSPVTKSFNRGEC
B9: 1H3-hIgG1-L6-hIL-2 (N88F) (protein)
heavy: EVQLVESGGGLVQPGRSLKLSCAVSGFTFSDYAMAWVRQAPKKGLEWVATISYDGSRTYYRDSVKGRFTISRDNAKITLYLQMDSLRSEDTATYYCARHGSGYFDYWGQGVMVTVSS[not shown - about 450 residues with a human IgG1 Fc and changes]
light: DTVLTQSPALAVSPGERVTISCRASESVRTGVHWYQQKPGQQPKLLIYGASNLESGVPARFSGSGSGTDFTLTIDPVEADDTATYFCQQSWNDPFTFGSGTKLEIKRTVAAPSVFIFPPSDEQLKSGTASVVCLLNNFYPREAKVQWKVDNALQSGNSQESVTEQDSKDSTYSLSSTLTLSKADYEKHKVYACEVTHQGLSSPVTKSFNRGEC
B10: 1H3-hIgG1-L6-hIL-2 (N88I) (protein)
heavy: EVQLVESGGGLVQPGRSLKLSCAVSGFTFSDYAMAWVRQAPKKGLEWVATISYDGSRTYYRDSVKGRFTISRDNAKITLYLQMDSLRSEDTATYYCARHGSGYFDYWGQGVMVTVSS[not shown - about 450 residues with a human IgG1 Fc and changes]
light: DTVLTQSPALAVSPGERVTISCRASESVRTGVHWYQQKPGQQPKLLIYGASNLESGVPARFSGSGSGTDFTLTIDPVEADDTATYFCQQSWNDPFTFGSGTKLEIKRTVAAPSVFIFPPSDEQLKSGTASVVCLLNNFYPREAKVQWKVDNALQSGNSQESVTEQDSKDSTYSLSSTLTLSKADYEKHKVYACEVTHQGLSSPVTKSFNRGEC
B11: 1H3-hIgG1-L6-hIL-2 (I92Y) (protein)
heavy: EVQLVESGGGLVQPGRSLKLSCAVSGFTFSDYAMAWVRQAPKKGLEWVATISYDGSRTYYRDSVKGRFTISRDNAKITLYLQMDSLRSEDTATYYCARHGSGYFDYWGQGVMVTVSS[not shown - about 450 residues with a human IgG1 Fc and changes]
light: DTVLTQSPALAVSPGERVTISCRASESVRTGVHWYQQKPGQQPKLLIYGASNLESGVPARFSGSGSGTDFTLTIDPVEADDTATYFCQQSWNDPFTFGSGTKLEIKRTVAAPSVFIFPPSDEQLKSGTASVVCLLNNFYPREAKVQWKVDNALQSGNSQESVTEQDSKDSTYSLSSTLTLSKADYEKHKVYACEVTHQGLSSPVTKSFNRGEC
B12: 1H3-hIgG1-L6-hIL-2 (I92S) (protein)
heavy: EVQLVESGGGLVQPGRSLKLSCAVSGFTFSDYAMAWVRQAPKKGLEWVATISYDGSRTYYRDSVKGRFTISRDNAKITLYLQMDSLRSEDTATYYCARHGSGYFDYWGQGVMVTVSS[not shown - about 450 residues with a human IgG1 Fc and changes]
light: DTVLTQSPALAVSPGERVTISCRASESVRTGVHWYQQKPGQQPKLLIYGASNLESGVPARFSGSGSGTDFTLTIDPVEADDTATYFCQQSWNDPFTFGSGTKLEIKRTVAAPSVFIFPPSDEQLKSGTASVVCLLNNFYPREAKVQWKVDNALQSGNSQESVTEQDSKDSTYSLSSTLTLSKADYEKHKVYACEVTHQGLSSPVTKSFNRGEC

Legend:
Assay in all cases: cell-based or functional assay
[1] = target: high-affinity hIL-2 receptor (IL-2Rαβγ) (human) (UniProt P01589)
[2] = target: high-affinity hIL-2 receptor (IL-2Rαβγ) on NK-92 cells (human) (UniProt P01589)
[3] = target: intermediate affinity hIL-2 receptor (hIL-2Rβγ) on TF1+IL-2Rβ cells (human) (UniProt P14784)
[4] = target: intermediate affinity hIL-2 receptor complex (IL-2Rβγ) (human) (UniProt P14784)

Binder	Fold change from rhIL-2 (NK-92), pSTAT5 titration [1] [fold]	Fold change from rhIL-2 (NK-92) [2] [fold]	Fold change from rhIL-2 (TF1 + IL-2Rβ) [3] [fold]	Fold change from rhIL-2 (TF1 + IL-2Rβ), pSTAT5 titration [4] [fold]	Agonistic Activity (NK-92), pSTAT5 titration [1] [%]	Fold change from hIL-2 (NK-92) [2] [fold]	Agonistic Activity (TF1 + IL-2Rβ) [3] [%]
B1	2	0	1	0			
B2	55	3	0	1			
B3	479	36	2		80		
B4	598	27	1				
B5	> 10000		383			17	
B6			21	14		1	
B7			> 10000	> 10000		22	
B8			1160	> 10000		10	50
B9			> 10000	> 10000		19	
B10			> 10000	> 10000		9	
B11			1	1		1	
B12			10	8		1	

From patent US20240076343A1
